According to the supplement of paper PMC12632987:
Whole data set: some 4,500 sequences, median “median log2 fold change of GCK-ALFA target abundance (FLAG IP / Myc IP barcode read proportion)” near 0.078, cut for the lowest 2% near -0.6. The list shows a part of the results.

B1: GBRAP_166_4889 (protein)
chain: STEEAIREIERLAEEAIANIAALTPEELLAVFIEMVEIVERAGATPELRAALAEAAARIVAAAVAAGRDWDEVESLALAAVGDDEELLDAVEATLAALRA
B2: GBRAP_160_4194 (protein)
chain: SEEIEKLKKEIKEIAEEAIEMIEGQSYEERKVIVKGALGQIVLLVDESESVSDEAEEKIAEIADETIAYLDSNPDLTEEEIKELIKETTEKIIKILEEED
B3: GBRAP_125_3075 (protein)
chain: PTPEELEDLALIARALGYSEDDVAEIVAIAAASSLRQTLVAIMLAEGAEEAADAVERLTEAEARAVLREVAAALRANPGLSKEEVVALMLEVARRALAAA
B4: GBRAP_78_6593 (protein)
chain: EIEEAIDELLKATNEAMTLLAKNPTEFAQDILGELIDESTEIWEAYEEYNDLEKIKEEAEKLAKTLKKALEKKDKFSPETVAAIEKALKEAEKLIKLLDK
B5: GBRAP_160_4700 (protein)
chain: SATAEKLKAFAQEEFDEAKELVVGESREQRAIIVEGRGGEIIMELISNPDVSDELVDEVDKIIDDLVATILANPDLTDEELKALIDEALKKIKEAIDKHL
B6: GBRAP_128_3332 (protein)
chain: MNEERLERAKELAEELKKADVEEARKLTREIVRLMGEASEEEREEIAKIFEEALKKLSAEKLEAVADVLREERPKLDPLTQEYVNDLEVEALNLAEEKEE
B7: GBRAP_160_4164 (protein)
chain: EEEAEKLIEEIDEITKEAIELIEGESIEQRAVIVDGEFGEIIMTLFESPVVSDEVVDLADKLRDELVEWLKENPDASLEEIKAKIEEVRDKIIEAVKKDA
B8: GBRAP_78_6601 (protein)
chain: EVEELLDRALELIGEAARLAQQLDPETQNEVLDHLVDAASDLVESEEPEGRLEHLKEALEHLEKALELVKASDSPAAPELAKVLEEAIELVKEAIKLLEE
B9: GBRAP_160_4452 (protein)
chain: SEELEKLKKEIDELRKRAKELIEGQTHEERVTVVAVEFGELILELSSEESVSDELEDEVAKIVDELVETLKANPDLTEEEVKKLIDEAAEKIKKALEKYL
B10: GBRAP_184_5345 (protein)
chain: MIASVTITAEEWKADPEAQLARVREALADPSVDTLVVILEDLSFEDALEAIERIGKLAKEAGFKNLIVHVDSELTEEEIDKLIEAADKYGIKLVVAIRDE
B11: GBRAP_137_3670 (protein)
chain: MIRVEVELENGLAFARITVEGSPEELERAAEIAEDIAGEIPDLAVSVKLTEEGRLEIDVFGTPESVEAFLRRLAERLDRTVEVTTRDEETGEVRRRVIRP
B12: GBRAP_160_4847 (protein)
chain: EEKKKRIREEFNKAREFVLSLIPEVTVEQLAAAFRAEIGTTALELLEEGVINEEAEDVALEGADEAEAALLAAADATPEELKALITEKVEEIIKKVEEKL
B13: GBRAP_160_4309 (protein)
chain: SEELEKLKEEIKEIAEEAIEMIEGQSAEQQKTIVKVTLGEIILLAFENPAISDELEDEIIKIADEAEKKLDANPDLTEEEIKELLKETVKKILELIEKSE
B14: GBRAP_184_5343 (protein)
chain: KTIEVHIENLSLEEMVKEAEKAAKKAAEQGADLLISIDAEGLSDEELVELVERIGEIAKKLGVKNLTIGIDKAVDEETADKLIEVADKYGIKLTIALEDE
B15: GBRAP_160_4839 (protein)
chain: SEKEKAVEERLEEARDEVLSLVDEVTVEQLANFYDVEINSVLLELREEGYINEEAEDVGLEIVDKGVADLLAAADATPEEIRAIIERHTKELIEAIKKLL
B16: GBRAP_137_3642 (protein)
chain: ANVTITTKTIDDLVEITVRYDDPEKAEEVAELIRDIAAEHGALAISIEIKEDGTLEAVVWIPKEKAEAFLEALIKALQTEFGANVTVIDEDTGETKVYKA
B17: GBRAP_166_4923 (protein)
chain: GTEEKVEKARKELKKVIEEGKADPSLTKGQITAAMAYKTAEMLKEEEDRETKLAIVEEALKLAKEEGLDPRRLATLTASLYGFSDEEIDEIDEITEKILA
B18: GBRAP_43_5761 (protein)
chain: SKELVEGALDFALLALEEPEISEETKVKAIKAAFDLAADEGYMDEEKVLEVIKAAGKSLSKEELEKLAKHLEELAKKYPELKEVLDKALKILEEAIKKKK
B19: GBRAP_52_6366 (protein)
chain: DLEEAVKLLREAVKAVLEGKEEEAEKILKEIVENFSEETILEAARRLAEELLEKSLEEAEAFLEAAIMLADILEEAGKSEVVGDEIEAIAARTLMEIRER

Target: GABARAP, O95166
Sequence (O95166 whole entry, the tested form may be a part): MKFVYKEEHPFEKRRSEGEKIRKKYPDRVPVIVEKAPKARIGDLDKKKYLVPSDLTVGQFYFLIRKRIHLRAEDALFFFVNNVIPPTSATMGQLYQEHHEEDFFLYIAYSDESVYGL
Experiment: median log2 fold change of GCK-ALFA target abundance (FLAG IP / Myc IP barcode read proportion) (log2 ratio); each designed protein is fused to an ALFA-tag nanobody in HEK293 cells to bring the named protein to FLAG-tagged glucokinase (GCK); Myc marks an untargeted standard; higher = target protein stabilised (more abundant)
Details: target protein: 3xFLAG-MCP-GCK-ALFA reporter; HEK293 landing pad (RPLP)
In short: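 An ALFA-nanobody-fused binder library was recombined into HEK293 landing-pad cells and induced with 2 μg mL^−1 doxycycline. Cells were transfected with a plasmid expressing a FLAG-tagged target and a Myc-tagged standard. After 48 h, lysates underwent anti-FLAG and anti-Myc immunoprecipitation, and circular RNA barcodes were reverse transcribed, amplified and sequenced. Target abundance is the per-binder median log2 ratio of FLAG to Myc barcode read proportions. Barcodes needed ≥10^−7 proportion in both replicates, binders ≥3 barcodes per replicate, and a 10^−6 pseudocount was added; the two replicates were pooled.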

Binder | median log2 fold change
B1 | 0.108
B2 | -0.0355
B3 | 0.0955
B4 | 0.216
B5 | 0.132
B6 | 0.405
B7 | 0.0193
B8 | 0.207
B9 | 0.206
B10 | 0.27
B11 | 0.0906
B12 | 0.256
B13 | -0.155
B14 | 0.0617
B15 | -0.0133
B16 | 0.255
B17 | 0.22
B18 | 0.219
B19 | -0.214
